# In article PMC12820563, “FoxP3 forms a head-to-head dimer in vivo and stabilizes its multimerization on adjacent microsatellites”:
# The list shows a part of the results.
# Biological target: T1, MBP-FoxP1dN (Mus musculus, UniProt P58462 326-579)
# T1 sequence: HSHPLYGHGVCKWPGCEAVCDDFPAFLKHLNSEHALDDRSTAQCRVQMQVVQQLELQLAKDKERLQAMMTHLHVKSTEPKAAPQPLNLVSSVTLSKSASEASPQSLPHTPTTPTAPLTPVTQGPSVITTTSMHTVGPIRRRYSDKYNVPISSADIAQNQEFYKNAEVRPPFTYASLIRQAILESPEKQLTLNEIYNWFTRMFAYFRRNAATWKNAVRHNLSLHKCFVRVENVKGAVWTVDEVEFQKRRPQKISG
# Experiment: PD-seq (MBP pull-down with sequencing); 20 mM Tris-HCl pH 7.5, 100 mM NaCl, 1.5 mM MgCl2, 0.4 uM protein, 0.1 uM dsDNA library, 30 min, room temperature, amylose pull-down; high values mean tight binding
# Settings: protein: recombinant; tags: His6-MBP; chain copies: 2; dsDNA, one strand shown
# Outline: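 His6-MBP-tagged mouse FoxP3 or FoxP1 fragment lacking the N-terminus, expressed in E. coli, was mixed at 0.4 µM with 0.1 µM Klenow-filled double-stranded degenerate DNA library. Incubation was 30 min at room temperature in Tris pH 7.5 buffer with NaCl and MgCl2. Complexes were caught on amylose resin and washed three times; DNA was released with proteinase K, PCR-barcoded and Illumina-sequenced. Binding is reads-per-million enrichment, pull-down over input, with replicates pooled.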
row,Sequence,binding signal
1,GATGATTGTTCTCCCAGCTGATGAATTTGGCCAGTCGAGTAAACAAATTTTCCTAATCTTTCTGTTCAAGCGCCATCTAC,0.785 RPM ratio (pull-down/input)
2,GATGATTGTTCTCCCAGCTGATGAATTCCCGGCATCGAGTAAACAAATTTTCCTAATCTTTCTGTTCAAGCGCCATCTAC,0.935 RPM ratio (pull-down/input)
3,GATGATTGTTCTCCCAGCTGATGAATTTGGTCTCTCGAGTAAACAAATTTTCCTAATCTTTCTGTTCAAGCGCCATCTAC,0.959 RPM ratio (pull-down/input)
4,GATGATTGTTCTCCCAGCTGATGAATTGAATATGTCGAGTAAACAAATTTTCCTAATCTTTCTGTTCAAGCGCCATCTAC,0.954 RPM ratio (pull-down/input)
5,GATGATTGTTCTCCCAGCTGATGAATTGAGACGCTCGAGTAAACAAATTTTCCTAATCTTTCTGTTCAAGCGCCATCTAC,0.858 RPM ratio (pull-down/input)
6,GATGATTGTTCTCCCAGCTGATGAATTAATATAGTCGAGTAAACAAATTTTCCTAATCTTTCTGTTCAAGCGCCATCTAC,0.98 RPM ratio (pull-down/input)
7,GATGATTGTTCTCCCAGCTGATGAATTTTGATTCTCGAGTAAACAAATTTTCCTAATCTTTCTGTTCAAGCGCCATCTAC,0.976 RPM ratio (pull-down/input)
8,GATGATTGTTCTCCCAGCTGATGAATTAATCGAATCGAGTAAACAAATTTTCCTAATCTTTCTGTTCAAGCGCCATCTAC,1.01 RPM ratio (pull-down/input)
9,GATGATTGTTCTCCCAGCTGATGAATTCCCCTGATCGAGTAAACAAATTTTCCTAATCTTTCTGTTCAAGCGCCATCTAC,0.784 RPM ratio (pull-down/input)
10,GATGATTGTTCTCCCAGCTGATGAATTAGAGTGCTCGAGTAAACAAATTTTCCTAATCTTTCTGTTCAAGCGCCATCTAC,0.848 RPM ratio (pull-down/input)
11,GATGATTGTTCTCCCAGCTGATGAATTAGCGGTATCGAGTAAACAAATTTTCCTAATCTTTCTGTTCAAGCGCCATCTAC,0.947 RPM ratio (pull-down/input)
12,GATGATTGTTCTCCCAGCTGATGAATTCACAAGTTCGAGTAAACAAATTTTCCTAATCTTTCTGTTCAAGCGCCATCTAC,0.88 RPM ratio (pull-down/input)
13,GATGATTGTTCTCCCAGCTGATGAATTGCTAAAGTCGAGTAAACAAATTTTCCTAATCTTTCTGTTCAAGCGCCATCTAC,1.1 RPM ratio (pull-down/input)
14,GATGATTGTTCTCCCAGCTGATGAATTATCTAAGTCGAGTAAACAAATTTTCCTAATCTTTCTGTTCAAGCGCCATCTAC,0.967 RPM ratio (pull-down/input)
15,GATGATTGTTCTCCCAGCTGATGAATTACGCATTTCGAGTAAACAAATTTTCCTAATCTTTCTGTTCAAGCGCCATCTAC,1.22 RPM ratio (pull-down/input)
16,GATGATTGTTCTCCCAGCTGATGAATTCTAAGTGTCGAGTAAACAAATTTTCCTAATCTTTCTGTTCAAGCGCCATCTAC,0.925 RPM ratio (pull-down/input)

row,Sequence,binding signal
1,GATGATTGTTCTCCCAGCTGATGAATTGGCGACTTCGAGTAAACAAATTTTCCTAATCTTTCTGTTCAAGCGCCATCTAC,0.917 RPM ratio (pull-down/input)
2,GATGATTGTTCTCCCAGCTGATGAATTAGGGTCTTCGAGTAAACAAATTTTCCTAATCTTTCTGTTCAAGCGCCATCTAC,0.839 RPM ratio (pull-down/input)
3,GATGATTGTTCTCCCAGCTGATGAATTGAAATACTCGAGTAAACAAATTTTCCTAATCTTTCTGTTCAAGCGCCATCTAC,0.901 RPM ratio (pull-down/input)
4,GATGATTGTTCTCCCAGCTGATGAATTGCGATCGTCGAGTAAACAAATTTTCCTAATCTTTCTGTTCAAGCGCCATCTAC,1.03 RPM ratio (pull-down/input)
5,GATGATTGTTCTCCCAGCTGATGAATTAGTCGCGTCGAGTAAACAAATTTTCCTAATCTTTCTGTTCAAGCGCCATCTAC,1.01 RPM ratio (pull-down/input)
6,GATGATTGTTCTCCCAGCTGATGAATTGAAGGTGTCGAGTAAACAAATTTTCCTAATCTTTCTGTTCAAGCGCCATCTAC,0.823 RPM ratio (pull-down/input)
7,GATGATTGTTCTCCCAGCTGATGAATTCGCCGTCTCGAGTAAACAAATTTTCCTAATCTTTCTGTTCAAGCGCCATCTAC,0.763 RPM ratio (pull-down/input)
8,GATGATTGTTCTCCCAGCTGATGAATTTATTCACTCGAGTAAACAAATTTTCCTAATCTTTCTGTTCAAGCGCCATCTAC,1.16 RPM ratio (pull-down/input)
9,GATGATTGTTCTCCCAGCTGATGAATTCCAAGAATCGAGTAAACAAATTTTCCTAATCTTTCTGTTCAAGCGCCATCTAC,0.932 RPM ratio (pull-down/input)
10,GATGATTGTTCTCCCAGCTGATGAATTCGAGAGCTCGAGTAAACAAATTTTCCTAATCTTTCTGTTCAAGCGCCATCTAC,0.759 RPM ratio (pull-down/input)
11,GATGATTGTTCTCCCAGCTGATGAATTCTAGGTTTCGAGTAAACAAATTTTCCTAATCTTTCTGTTCAAGCGCCATCTAC,0.884 RPM ratio (pull-down/input)
12,GATGATTGTTCTCCCAGCTGATGAATTGACATTGTCGAGTAAACAAATTTTCCTAATCTTTCTGTTCAAGCGCCATCTAC,1.38 RPM ratio (pull-down/input)
13,GATGATTGTTCTCCCAGCTGATGAATTACCGCAATCGAGTAAACAAATTTTCCTAATCTTTCTGTTCAAGCGCCATCTAC,1.22 RPM ratio (pull-down/input)
14,GATGATTGTTCTCCCAGCTGATGAATTTTTAACTTCGAGTAAACAAATTTTCCTAATCTTTCTGTTCAAGCGCCATCTAC,0.922 RPM ratio (pull-down/input)
15,GATGATTGTTCTCCCAGCTGATGAATTGTTCCTTTCGAGTAAACAAATTTTCCTAATCTTTCTGTTCAAGCGCCATCTAC,1.07 RPM ratio (pull-down/input)
